In ChEMBL document CHEMBL4888484, “Replenishing the malaria drug discovery pipeline: Screening and hit evaluation of the MMV Hit Generation Library 1 (HGL1) against asexual blood stage Plasmodium falciparum ,using a nano luciferase reporter read-out” (2022):
Hit rate of the full screen: of about 150,000 compounds, about 540 (0.36%) showed an effect of 50% or more. The list shows a part of the results.

test system: Plasmodium falciparum; assay: Primary screen in NF54 nanoGlo assay, in single point, at 2uM, 72h; a lower Z score goes with more inhibition; type: functional, Erythrocyte; settings: timepoint 72 hour

SMILES | % Inhibition [%] | Z score
O=C(NC1CCCC2CN(Cc3ccccc3)CC21)C1(O)CCC1 (centres undefined) | -6 | 0.48
Cn1cc(CN2CCCN(C(=O)Nc3nnc(C(C)(C)c4ccccc4)s3)CC2)cn1 | -8 | 1.71
CC(C)C(=O)N[C@H]1CC12CCN(C(=O)c1cccn1C)CC2 | -17 | 3.09
O=C(Nc1ccc2c(c1)OCO2)c1ccc(=O)[nH]c1 | 2 | -0.13
CNS(=O)(=O)c1ccc(-c2ccc3c(c2)CCOC3)s1 | -4 | 0.69
Cc1ccn2cc(C(=O)N3CCCC(N4C(C)CCC4C)C3)nc2c1 (centres undefined) | -10 | 1.21
COc1ccc(CC(=N)Nc2cc3cc(OC)c(OC)cc3c(Cc3ccc(OC)c(OC)c3)n2)cc1OC | 85 | -9.78
CC1(C)CO[C@@H](CS(=O)(=O)NCCc2cn[nH]c2)C1 | -11 | 1.2
Cc1cc(F)c(C(=O)N2CC[C@H](N3CC=CC3)C2)cc1F | 30 | -3.38
COc1cc(OC)cc(C(=O)N2C[C@H](COc3ccncc3)C3(CCOCC3)C2)c1 | -13 | 1.67
COc1cc(C(=O)NC[C@H]2CCCN3CCCC[C@@H]23)cc(OC)c1OC | 0 | -0.01
CCN(C(=O)[C@H]1CC1(C)C)c1ccccc1S(=O)(=O)CC | -9 | 1.29
CCS(=O)(=O)N1CCN(CC(=O)Nc2nn(Cc3ccccc3)cc2Cl)CC1 | -10 | 1.22
C[C@H](NC(=O)N1CC(c2ccncc2)C1)c1cnn(C)c1 | 6 | -1.13
CCCCc1nc(C)cc(NCCNC(=O)[C@@H]2CCCCO2)n1 | 1 | -0.16
Cc1ccoc1C(=O)NC1CCN(C(C(=O)O)c2ccccc2)C1=O (centres undefined) | -4 | 0.35
O=C(O)[C@H]1CCN(C(=O)NCCc2cccc(-c3ccccc3)c2)C1 | -14 | 1.3
CC(=O)N1CCC[C@H]1C(=O)NC(C)(C)c1nc2ccccc2n1C | -11 | 1.33
CCOC(=O)N1CCc2c(nc(-c3ccc(F)cc3)n(CC(=O)Nc3cc(Cl)ccc3C)c2=O)C1 | 33 | -3.77
COc1ccc2c(ccn2CC(=O)N2CCC(NC(=O)OC(C)(C)C)CC2C)c1 (centres undefined) | -6 | 0.83
COc1ccc(-c2nc(NC3CCCCC3)nc3nn(Cc4ccccc4)c(N)c23)c(F)c1 | -17 | 1.98
C[C@@H](CCNc1nc(-c2ccncc2)nc2c1CCNCC2)n1ccnc1 | 13 | -1.64
